According to the supplement of paper PMC8728848:
Some of the results follow.

How the values were obtained:
Assay in all cases: glycan array binding signal (z-score within array); higher = stronger binding
Settings in all cases: glycan notation: IUPAC condensed, linker removed
[1] = biological target: Gal(b1-3)[Fuc(a1-4)]GlcNAc(b1-3)Gal(b1-4)[Fuc(a1-3)]GlcNAc
In short: (§1)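 Arrays were curated from the Consortium for Functional Glycomics database, 3228 in total, and kept only where the protein sequence was available. Binding is expressed as a within-array Z-score. This score was averaged across arrays of the same protein sequence at different concentrations or buffers and across linkers, and negative values can be read as non-binding.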

[2] = biological target: Gal(b1-3)[GlcNAc(b1-6)]GalNAc
In short: as §1

[3] = biological target: Gal(b1-3)[Neu5Ac(a2-6)]GalNAc
In short: as §1

[4] = biological target: Gal(b1-3)[Neu5Ac(a2-6)]GlcNAc(b1-6)Gal(b1-4)Glc
In short: as §1

[5] = biological target: Gal(b1-3)[Neu5Ac(b2-6)]GalNAc
In short: as §1

[6] = biological target: Gal(b1-4)GalNAc(a1-3)[Fuc(a1-2)]Gal(b1-4)GlcNAc
In short: as §1

[7] = biological target: Gal(b1-4)GalNAc(b1-3)[Fuc(a1-2)]Gal(b1-4)GlcNAc
In short: as §1

Gal(b1-4)Glc = biological target: Gal(b1-4)Glc
In short: as §1

Gal(b1-4)Glc6S = biological target: Gal(b1-4)Glc6S
In short: as §1

Gal(b1-4)GlcNAc = biological target: Gal(b1-4)GlcNAc
In short: as §1

[8] = biological target: Gal(b1-4)GlcNAc(a1-6)Gal(b1-4)GlcNAc
In short: as §1

[9] = biological target: Gal(b1-4)GlcNAc(b1-2)Man(a1-3)[Gal(b1-4)GlcNAc(b1-2)Man(a1-6)]Man(b1-4)GlcNAc(b1-4)GlcNAc
In short: as §1

[10] = biological target: Gal(b1-4)GlcNAc(b1-3)Gal(b1-3)GlcNAc
In short: as §1

[11] = biological target: Gal(b1-4)GlcNAc(b1-3)Gal(b1-4)Glc
In short: as §1

[12] = biological target: Gal(b1-4)GlcNAc(b1-3)Gal(b1-4)GlcNAc
In short: as §1

[13] = biological target: Gal(b1-4)GlcNAc(b1-3)Gal(b1-4)GlcNAc(b1-3)Gal(b1-4)GlcNAc
In short: as §1

[14] = biological target: Gal(b1-4)GlcNAc(b1-3)Gal(b1-4)[Fuc(a1-3)]GlcNAc(b1-3)Gal(b1-4)[Fuc(a1-3)]GlcNAc
In short: as §1

[15] = biological target: Gal(b1-4)GlcNAc(b1-3)GalNAc
In short: as §1

[16] = biological target: Gal(b1-4)GlcNAc(b1-3)[Gal(b1-4)GlcNAc(b1-6)]Gal(b1-4)GlcNAc
In short: as §1

[17] = biological target: Gal(b1-4)GlcNAc(b1-3)[GlcNAc(b1-6)]Gal(b1-4)GlcNAc
In short: as §1

[18] = biological target: Gal(b1-4)GlcNAc(b1-6)Gal(b1-4)GlcNAc
In short: as §1

[19] = biological target: Gal(b1-4)GlcNAc(b1-6)Gal(b1-4)GlcNAc(b1-6)GalNAc
In short: as §1

[20] = biological target: Gal(b1-4)GlcNAc(b1-6)GalNAc
In short: as §1

[21] = biological target: Gal(b1-4)GlcNAc(b1-6)[Gal(b1-3)]GalNAc
In short: as §1

Gal3S(b1-3)GalNAc = biological target: Gal3S(b1-3)GalNAc
In short: as §1

Gal3S(b1-3)GlcNAc = biological target: Gal3S(b1-3)GlcNAc
In short: as §1

[22] = biological target: Gal3S(b1-3)[Fuc(a1-4)]GlcNAc
In short: as §1

Gal3S(b1-4)Glc = biological target: Gal3S(b1-4)Glc
In short: as §1

Gal3S(b1-4)Glc6S = biological target: Gal3S(b1-4)Glc6S
In short: as §1

Gal3S(b1-4)GlcNAc = biological target: Gal3S(b1-4)GlcNAc
In short: as §1

Gal3S(b1-4)GlcNAc6S = biological target: Gal3S(b1-4)GlcNAc6S
In short: as §1

[23] = biological target: Gal3S(b1-4)[Fuc(a1-3)]Glc
In short: as §1

Gal3S4S(b1-4)GlcNAc = biological target: Gal3S4S(b1-4)GlcNAc
In short: as §1

Gal3S6S(b1-4)GlcNAc = biological target: Gal3S6S(b1-4)GlcNAc
In short: as §1

Gal3S6S(b1-4)GlcNAc6S = biological target: Gal3S6S(b1-4)GlcNAc6S
In short: as §1

Gal4S(b1-4)GlcNAc = biological target: Gal4S(b1-4)GlcNAc
In short: as §1

Gal4S6S(b1-4)GlcNAc = biological target: Gal4S6S(b1-4)GlcNAc
In short: as §1

B1: Codakine (Codakia orbicularis), Q3KVL7_9BIVA (protein)
chain: MKILVAVFLVLVVVGTAAAGCPDGWTQFLDLCYIYQSAKASWASAQSSCQALGGILAEPDTACENEVLIHMCRENGDAGSFGPWLGGQKVGGAWQWSSSGAAFDYLRWGPNEPNNSGGNEDCLHYNWLSWNDLRCHYQASYLCQRAAE
How did the “glycan array binding signal (z-score)” value [1] turn out when B1 was run?
The value was 0.044.

And the “glycan array binding signal (z-score)” value [2]?
The value was -0.251.

What about the “glycan array binding signal (z-score)” value [3] of the same binder?
Its value is -0.307.

What about the “glycan array binding signal (z-score)” value [4] of the same binder?
Its value is -0.307.

What about the “glycan array binding signal (z-score)” value [5] of the same binder?
The value was -0.245.

What about the “glycan array binding signal (z-score)” value [6] of the same binder?
The value was -0.419.

What about the “glycan array binding signal (z-score)” value [7] of the same binder?
Its value is -0.318.

What about the “glycan array binding signal (z-score)” value (Gal(b1-4)Glc) of the same binder?
Its value is -0.285.

And the “glycan array binding signal (z-score)” value (Gal(b1-4)Glc6S)?
The value was -0.273.

And the “glycan array binding signal (z-score)” value (Gal(b1-4)GlcNAc)?
The value was -0.3.

And the “glycan array binding signal (z-score)” value [8]?
Its value is -0.239.

And the “glycan array binding signal (z-score)” value [9]?
The value was 4.02.

What about the “glycan array binding signal (z-score)” value [10] of the same binder?
Its value is -0.239.

What about the “glycan array binding signal (z-score)” value [11] of the same binder?
Its value is -0.283.

And the “glycan array binding signal (z-score)” value [12]?
The value was -0.271.

What about the “glycan array binding signal (z-score)” value [13] of the same binder?
Its value is -0.271.

And the “glycan array binding signal (z-score)” value [14]?
Its value is -0.218.

And the “glycan array binding signal (z-score)” value [15]?
Its value is -0.375.

And the “glycan array binding signal (z-score)” value [16]?
The value was -0.357.

What about the “glycan array binding signal (z-score)” value [17] of the same binder?
The value was -0.221.

And the “glycan array binding signal (z-score)” value [18]?
The value was -0.245.

And the “glycan array binding signal (z-score)” value [19]?
The value was -0.242.

What about the “glycan array binding signal (z-score)” value [20] of the same binder?
The value was -0.33.

What about the “glycan array binding signal (z-score)” value [21] of the same binder?
Its value is -0.328.

What about the “glycan array binding signal (z-score)” value (Gal3S(b1-3)GalNAc) of the same binder?
Its value is -0.314.

And the “glycan array binding signal (z-score)” value (Gal3S(b1-3)GlcNAc)?
The value was -0.077.

What about the “glycan array binding signal (z-score)” value [22] of the same binder?
Its value is -0.195.

And the “glycan array binding signal (z-score)” value (Gal3S(b1-4)Glc)?
Its value is -0.212.

And the “glycan array binding signal (z-score)” value (Gal3S(b1-4)Glc6S)?
The value was 0.241.

And the “glycan array binding signal (z-score)” value (Gal3S(b1-4)GlcNAc)?
The value was -0.186.

And the “glycan array binding signal (z-score)” value (Gal3S(b1-4)GlcNAc6S)?
Its value is -0.049.

And the “glycan array binding signal (z-score)” value [23]?
Its value is -0.177.

And the “glycan array binding signal (z-score)” value (Gal3S4S(b1-4)GlcNAc)?
Its value is -0.091.

And the “glycan array binding signal (z-score)” value (Gal3S6S(b1-4)GlcNAc)?
The value was -0.214.

And the “glycan array binding signal (z-score)” value (Gal3S6S(b1-4)GlcNAc6S)?
The value was 0.22.

What about the “glycan array binding signal (z-score)” value (Gal4S(b1-4)GlcNAc) of the same binder?
Its value is -0.155.

And the “glycan array binding signal (z-score)” value (Gal4S6S(b1-4)GlcNAc)?
The value was -0.177.
